Assay results reported in PubChem BioAssay AID1347165 (National Center for Advancing Translational Sciences (NCATS), 2019).
Out of some 220,000 compounds screened, about 5,700 (2.6%) were called active. This list was built around the results that the source calls inconclusive (neither active nor inactive); the mix of calls is not that of the screen. Calls come from the whole dose curve; as a rule, active = well fitted inhibition curve with a large enough effect; inconclusive = small, poorly fitted or top-dose-only effect; inactive = no such curve, though single readings can be large or run the other way. Potencies beside an inconclusive call are fits to weak or partial responses and may not hold up.

Target: Lysine-specific demethylase 5B (Homo sapiens) (UniProt Q9UGL1)
UniProt Q9UGL1, sequence (Q9UGL1 whole entry, looked up): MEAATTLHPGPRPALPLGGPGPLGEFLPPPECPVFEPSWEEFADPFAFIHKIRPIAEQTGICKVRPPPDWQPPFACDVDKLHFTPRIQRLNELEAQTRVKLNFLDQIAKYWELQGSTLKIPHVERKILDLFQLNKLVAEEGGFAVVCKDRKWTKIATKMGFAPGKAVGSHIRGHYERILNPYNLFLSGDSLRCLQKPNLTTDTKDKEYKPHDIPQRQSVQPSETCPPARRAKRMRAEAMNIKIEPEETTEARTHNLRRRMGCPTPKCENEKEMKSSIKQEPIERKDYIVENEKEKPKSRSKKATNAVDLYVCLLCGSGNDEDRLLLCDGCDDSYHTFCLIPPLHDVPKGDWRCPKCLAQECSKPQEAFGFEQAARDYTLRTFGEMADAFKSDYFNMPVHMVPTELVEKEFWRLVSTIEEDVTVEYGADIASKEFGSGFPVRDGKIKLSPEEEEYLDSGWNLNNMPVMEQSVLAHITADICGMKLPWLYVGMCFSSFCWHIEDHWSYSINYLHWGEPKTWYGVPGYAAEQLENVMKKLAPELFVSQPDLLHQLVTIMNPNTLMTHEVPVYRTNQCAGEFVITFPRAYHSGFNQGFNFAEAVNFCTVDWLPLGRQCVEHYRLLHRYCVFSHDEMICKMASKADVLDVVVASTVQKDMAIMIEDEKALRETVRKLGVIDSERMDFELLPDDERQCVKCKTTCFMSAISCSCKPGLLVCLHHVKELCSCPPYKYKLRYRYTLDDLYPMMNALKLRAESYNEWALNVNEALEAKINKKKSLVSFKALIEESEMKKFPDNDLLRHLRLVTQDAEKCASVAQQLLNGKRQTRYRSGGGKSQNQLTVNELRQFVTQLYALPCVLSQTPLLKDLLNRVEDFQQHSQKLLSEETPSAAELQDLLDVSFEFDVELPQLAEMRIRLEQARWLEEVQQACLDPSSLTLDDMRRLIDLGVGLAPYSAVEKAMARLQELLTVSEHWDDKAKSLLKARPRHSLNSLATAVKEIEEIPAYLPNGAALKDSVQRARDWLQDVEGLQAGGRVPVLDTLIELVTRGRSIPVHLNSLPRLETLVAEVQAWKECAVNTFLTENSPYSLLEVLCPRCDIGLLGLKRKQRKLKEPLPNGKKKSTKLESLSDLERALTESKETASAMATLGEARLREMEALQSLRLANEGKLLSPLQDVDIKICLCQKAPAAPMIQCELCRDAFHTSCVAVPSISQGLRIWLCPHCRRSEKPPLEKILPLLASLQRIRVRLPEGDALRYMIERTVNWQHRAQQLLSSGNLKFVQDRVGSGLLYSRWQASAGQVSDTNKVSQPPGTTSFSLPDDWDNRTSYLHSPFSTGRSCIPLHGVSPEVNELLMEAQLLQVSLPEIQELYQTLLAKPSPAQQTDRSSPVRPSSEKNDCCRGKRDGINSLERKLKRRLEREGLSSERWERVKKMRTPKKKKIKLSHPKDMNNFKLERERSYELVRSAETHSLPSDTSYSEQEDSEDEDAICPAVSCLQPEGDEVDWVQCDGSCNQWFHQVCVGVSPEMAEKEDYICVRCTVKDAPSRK
Assay: Primary screen for KDM5B Histone Demethylases FDH-coupled qHTS; note: nearly all actives have a fitted effect of over 70% in size; for activity change, negative = inhibition: 0% is about no effect
Conditions: FDH-coupled NADH fluorescence (FDH is formaldehyde dehydrogenase); activity change, negative = inhibition: at 57.7 µM (top of the series) unless noted
Method in brief: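 Here, H3K4me3 peptide (12.5 µM in substrate mix) is demethylated by KDM5BΔAP, 200 nM final, after 10 min compound exposure. Formaldehyde product is coupled through FDH (0.25 U/mL in mix) to NADH fluorescence; 30-min ΔRFU feeds dose-response curves.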
Potency is the fitted concentration of half-maximal effect; tags give direction and shape of the fitted curve.

| Compound | Potency | activity change, negative = inhibition |
| --- | --- | --- |
| CC(C)Oc1ccc(C(=O)CCN2CCOCC2)cc1 | inconclusive: 31.6 µM [inhibitor, single point] |  |
| Cc1ccc(Cl)cc1N1CCN(S(=O)(=O)c2ccc3[nH]c4c(c3c2)CCCC4)CC1 | inconclusive: 25.1 µM [inhibitor, partial curve, poor fit] |  |
| C[C@@H]1C(=O)O[C@H]2[C@H]1CC[C@@]1(C)Cc3sc(NC(=O)c4ccc(N(C)C)cc4)nc3[C@@H](C)[C@H]21 | active: 28.2 µM |  |
| CCOc1nccnc1NC1CCN(C(=O)c2cccnc2)CC1 | active: 28.2 µM |  |
| COc1ccccc1NC(=O)CN1C(=O)c2cccc3cccc1c23 | inconclusive: 14.1 µM [inhibitor, partial curve, poor fit] |  |
| CCC(CNC(=O)c1csc2nc(-c3ccccc3Cl)cn12)N(C)C (stereo not drawn) | inconclusive: 7.08 µM [inhibitor, partial curve] |  |
| CC(C)(CNC(=O)NCc1nc2ccccc2s1)N1CCOCC1 | inconclusive: 39.8 µM [inhibitor, single point] |  |
| COc1ccc(C)cc1CN1CCN(C(=O)Nc2cccc(C)c2)CC1 |  | inactive: 12.6% |
| Cc1ccc(-c2cn(C3CCN(C(=O)c4ccc(Cl)cc4)CC3)c(=O)[nH]2)cc1 | inconclusive: 56.2 µM [inhibitor, partial curve, poor fit] |  |
| CCOc1ccc(-n2nc3cc(C)c(NC(=O)CC)cc3n2)cc1 | inconclusive: 14.1 µM [inhibitor, partial curve, poor fit] |  |
| O=C(NNC(=O)c1c2c(nc3ccccc13)CCCC2)c1ccccn1 | inconclusive: 14.1 µM [inhibitor, partial curve, poor fit] |  |
| COc1ccc(C2NC(=O)c3c(sc4c3CCN(C)C4)N2)cc1O (stereo not drawn) | inconclusive: 28.2 µM [inhibitor, partial curve, poor fit] |  |
| N#Cc1ccc(C(=O)Nc2cccc(-c3nnc4n3CCCC4)c2)cc1 | inconclusive: 8.91 µM [inhibitor, partial curve, poor fit] |  |
| CCCNc1nc(NCc2ccccc2OC)c2cnn(C)c2n1 | inconclusive: 39.8 µM [inhibitor, single point] |  |
| CONC(=O)Cc1ccc(OC)cc1 |  | inactive: 15.6% |
| CNC(=O)C(C)N(C)C(=O)c1coc(CN2CCN(c3ccccc3F)CC2)n1 (stereo not drawn) | inconclusive: 17.8 µM [inhibitor, partial curve] |  |
| CCn1cc(C(=O)N2CCC(C3CCN(C(=O)NC)CC3)C2)cn1 (stereo not drawn) |  | inactive: 8.84% |
| c1ccc(CN2C[C@@H]3C[C@H]2CN3Cc2cn(-c3ccccc3)nn2)cc1 |  | inactive: -7.3% |
| CN(C)C(=O)CNS(=O)(=O)c1cc(F)ccc1F |  | inactive: 2.63% |
| Cc1ccc(N(CC(=O)NCc2ccc(F)cc2)C(=O)c2snc(C(N)=O)c2N)cc1C | inconclusive: 31.6 µM [inhibitor, partial curve, poor fit] |  |
| CCc1ccc(-n2nc(C)c3c(C(=O)NCCc4ccc(OC)c(OC)c4)cc(C)nc32)cc1 | inconclusive: 31.6 µM [inhibitor, partial curve, poor fit] |  |
| CC1(C)c2cc(Cl)ccc2-n2c1cc(O)c(-c1ccccc1)c2=O | inconclusive: 20 µM [inhibitor, single point] |  |

| Compound | Potency | activity change, negative = inhibition |
| --- | --- | --- |
| COc1cccc(CN2CCNC(=O)C2CC(=O)NCC(N)=O)c1OC (stereo not drawn) | inconclusive: 22.4 µM [inhibitor, single point] |  |
| O=C(CSc1nnc2ccc(-c3ccncc3)nn12)N1CCCCC1 |  | inactive: 20.2% |
| Cc1ccc(NCCC(=O)c2cc3ccccc3o2)cc1Br | inconclusive: 31.6 µM [inhibitor, partial curve, poor fit] |  |
| COc1ccc(-c2cnc3n[nH]c(-c4ccc(F)cc4C)c3n2)cn1 | active: 28.2 µM |  |
| O=C(COc1ccc2ccc(=O)oc2c1)Nc1ccc(F)c(F)c1 | inconclusive: 15.8 µM [inhibitor, partial curve, poor fit] |  |
| CCOC(=O)c1cc(OC(=O)c2ccc(Cl)cc2)n(-c2ccccc2)n1 | inconclusive: 31.6 µM [inhibitor, single point] |  |
| Cc1nc2cc(-c3cccc(F)c3)nn2c(C)c1CCC(=O)Nc1ccc(CN2CCCC2)cc1 | inconclusive: 25.1 µM [inhibitor, partial curve, poor fit] |  |
| COc1ccc2cc(CN(C)Cc3c(C)noc3C)ccc2c1 | inconclusive: 25.1 µM [inhibitor, partial curve, poor fit] |  |
| CC(=O)c1ccccc1NC(=O)COC(=O)c1cc(=O)c2ccccc2o1 |  | inactive: -14.7% |
| COCCN1C(=O)c2ccccc2C(C(=O)NCc2ccco2)C12CCCCC2 (stereo not drawn) | inconclusive: 35.5 µM [inhibitor, partial curve, poor fit] |  |
| Cc1ccccc1CCNC(=O)c1nccnc1N | inconclusive: 25.1 µM [inhibitor, partial curve, poor fit] |  |
| CC(NC(=O)c1ccc[n+]([O-])c1)c1cccc(C(F)(F)F)c1 (stereo not drawn) |  | inactive: -15.5% |
| COc1ccc(C(NC(=O)Cc2cccs2)C(=O)Nc2ccc3c(c2)OCO3)cc1 (stereo not drawn) |  | inactive: -1.81% |
| Cc1cccc(C(C)C)c1NC(=O)COc1ncnc2ccccc12 |  | inactive: -5.94% |
| O=C(NC1CCCC1)N1CCN(c2nc3ncccc3o2)CC1 | inconclusive: 35.5 µM [inhibitor, partial curve] |  |
| Cc1oc(-c2cccs2)nc1CC(=O)NC(C)CN1CCOCC1 (stereo not drawn) | inconclusive: 22.4 µM [inhibitor, partial curve, poor fit] |  |
| COc1cc(/C=C/C(=O)c2ccc(C#N)cc2)cc(Br)c1O |  | inactive: -0.0291% |
| Cc1noc(C)c1S(=O)(=O)N(CC(=O)NCc1ccccc1Cl)c1ccc(C(C)C)cc1 | inconclusive: 14.1 µM [inhibitor, partial curve, poor fit] |  |
| O=C(C1CC1)N1CCN(Cc2ccccc2)CC(O)C1 (stereo not drawn) | inconclusive: 20 µM [inhibitor, single point] |  |
| Cc1cc(N2C(=O)C(=O)/C(=C(/O)c3ccccc3)C2c2cccc(Br)c2)no1 (stereo not drawn) | inconclusive: 10 µM [inhibitor, partial curve, poor fit] |  |
| Cc1cccc(N2CCN(c3nc4ccccc4c(=O)n3-c3ccc(Cl)cc3)CC2)c1C | inconclusive: 31.6 µM [inhibitor, partial curve, poor fit] |  |
